Data from the supplement of paper PMC3334620.
Over roughly 33,000 sequences, “E-score (-0.5 to 0.5)” has its median near -0.053; the highest 2% begin near 0.37. Some of the results follow.

target: Hap1 (UniProt P0CE41); assay: PBM E-score (8-mer binding enrichment) (E-score (-0.5 to 0.5)); higher = stronger / more preferred TF binding; most listed sequences are background and not binding sites; settings: protein concentration: 200 nM; construct: GST-DNA-binding domain
How it was run: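 The E-score, a modified Wilcoxon-Mann-Whitney statistic, was computed by the Universal PBM Analysis Suite for every ungapped eight-base word pooled with its reverse complement. Scans behind it were normalised with masliner after bound GST-tagged yeast transcription factors were detected with fluorescent anti-GST. The proteins, at about 100-200 nM, had been applied to universal all-10-mer Agilent arrays made double-stranded by primer extension.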

UniProt P0CE41, sequence (P0CE41 whole entry, the tested form may be a part): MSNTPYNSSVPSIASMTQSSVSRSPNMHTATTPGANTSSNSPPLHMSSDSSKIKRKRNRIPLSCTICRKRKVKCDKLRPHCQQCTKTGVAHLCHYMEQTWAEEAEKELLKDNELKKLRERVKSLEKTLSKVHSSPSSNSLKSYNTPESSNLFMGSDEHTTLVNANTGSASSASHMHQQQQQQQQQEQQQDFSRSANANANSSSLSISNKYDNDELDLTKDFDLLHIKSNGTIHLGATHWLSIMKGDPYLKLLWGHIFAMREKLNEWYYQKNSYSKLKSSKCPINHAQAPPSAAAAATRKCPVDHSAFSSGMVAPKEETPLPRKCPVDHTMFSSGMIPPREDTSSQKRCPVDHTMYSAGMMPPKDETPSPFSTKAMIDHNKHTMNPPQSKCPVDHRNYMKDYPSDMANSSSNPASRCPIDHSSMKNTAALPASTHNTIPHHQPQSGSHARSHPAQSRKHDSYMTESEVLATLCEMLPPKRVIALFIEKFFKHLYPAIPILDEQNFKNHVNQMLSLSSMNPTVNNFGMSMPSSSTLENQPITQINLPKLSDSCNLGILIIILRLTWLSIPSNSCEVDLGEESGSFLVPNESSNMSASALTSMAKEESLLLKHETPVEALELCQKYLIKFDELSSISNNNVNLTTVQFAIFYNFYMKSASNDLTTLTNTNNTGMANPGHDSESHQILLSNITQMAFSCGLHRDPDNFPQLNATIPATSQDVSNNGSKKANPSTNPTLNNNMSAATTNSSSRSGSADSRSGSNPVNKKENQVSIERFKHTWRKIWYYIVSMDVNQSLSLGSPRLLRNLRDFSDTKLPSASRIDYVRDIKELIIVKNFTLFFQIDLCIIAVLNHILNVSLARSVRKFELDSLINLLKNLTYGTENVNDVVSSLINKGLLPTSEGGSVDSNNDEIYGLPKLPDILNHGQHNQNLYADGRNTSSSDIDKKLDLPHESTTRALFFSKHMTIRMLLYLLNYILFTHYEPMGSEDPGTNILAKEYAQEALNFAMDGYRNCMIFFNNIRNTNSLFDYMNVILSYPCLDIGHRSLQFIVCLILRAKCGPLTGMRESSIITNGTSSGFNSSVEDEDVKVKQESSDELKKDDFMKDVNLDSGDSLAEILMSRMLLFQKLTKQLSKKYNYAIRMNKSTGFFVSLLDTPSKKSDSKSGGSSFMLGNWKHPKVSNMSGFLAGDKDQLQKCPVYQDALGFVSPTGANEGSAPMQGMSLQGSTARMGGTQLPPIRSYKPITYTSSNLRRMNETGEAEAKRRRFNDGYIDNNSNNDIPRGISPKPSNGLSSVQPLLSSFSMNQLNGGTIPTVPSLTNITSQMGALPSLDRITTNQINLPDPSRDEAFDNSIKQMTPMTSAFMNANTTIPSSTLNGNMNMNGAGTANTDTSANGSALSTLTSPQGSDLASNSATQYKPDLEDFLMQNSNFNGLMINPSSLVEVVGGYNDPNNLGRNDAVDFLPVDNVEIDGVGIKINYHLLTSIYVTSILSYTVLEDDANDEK

Sequence	PBM E-score
ACCACCCG	0.199
CGGGAGAA	0.129
AGGAGTTA	0.292
TACGGGAA	0.231
ACCTAGTC	-0.141
AGGGCTAT	-0.272
TCACATCA	-0.0474
CCTCATGA	-0.0804
GACCACCC	-0.0841
TACACGAA	0.00747
ATCCGTTG	0.301
ATGGATGA	-0.114
AAGCCTTG	-0.255
ACGTAAGT	-0.0986
CCTATCCA	-0.26
ATACGATA	-0.00088
GCCTGGCC	0.0376
CCGGAGCC	0.341
ACCTTGAA	-0.303
GACTATGC	-0.194
ACTATGAC	-0.16
ATTTGTCG	0.235
AAATTACG	-0.0441
ACGAACTG	-0.105
AGGGATGC	-0.223

Sequence	PBM E-score
CTACACGA	-0.229
AAACATCC	0.122
ATGGCAAA	-0.126
AACATGAG	-0.215
CGCATGAA	-0.0382
AGAAGAAC	-0.0641
AATGTATC	0.0324
CACACACA	-0.308
AGGCACAT	-0.141
GCGTCGAA	0.0566
CCTGCGAA	-0.197
CAGCAGAA	-0.118
CCCATCCC	-0.0251
CTAACTAG	-0.0143
AAAACCGA	0.396
AGCAGGGA	-0.251
ATTAATCA	-0.00067
TCATGACA	-0.0426
GAACGACC	-0.311
CCTGAAGA	-0.137
TCCCGTCA	0.0354
CTCCACAG	-0.346
AATGTCTG	-0.0594
AATCGAGG	-0.13
CGCGATGA	0.088

Sequence	PBM E-score
CAAGTGAG	-0.238
AATAGAGT	-0.234
CAATGTAA	-0.0714
TAAAACGA	-0.224
ACAACCAG	-0.141
ATGTACCC	-0.00709
TGCTTCAA	-0.0729
ACATTCCA	-0.132
ATCCCAGA	-0.155
CCACAGAG	-0.138
CCAAAACA	-0.251
TCTATGAA	-0.115
ACCTGCCA	-0.122
GGCTGCAA	0.188
AGTCACAT	-0.148
TGTGGTAA	0.0211
CTCACAAC	-0.0979
ATCCTCGA	-0.107
TAATCGGA	0.317
CGTTAAGA	0.0629
CGCGAGAG	0.0872
ACGGAAAA	0.317
AACCGGAC	0.369
ATGGTCAC	-0.0307
AGGCAGTG	-0.249

Sequence	PBM E-score
ACCTCTCG	-0.0768
ATGTAGCG	-0.0634
ATAGAGGA	-0.186
AGGCCGCC	-0.0366
ACCGGCCA	0.284
GAGATCCC	0.0892
AATGGATC	0.0386
GAGATAAA	0.237
ACCTCAGA	-0.117
AGTAACAT	0.0104
ATGGACGC	0.00214
AGACGTAG	-0.262
GATCCTCA	-0.0626
AGGGCACA	-0.191
AGCATGAT	-0.103
GGGATCCC	0.228
CAGTCTCA	-0.149
ATGCCAGC	-0.185
AGCTGACC	-0.0559
CGCGAACG	0.143
GAATAGGC	0.0487
CGGCCTCC	0.131
AAACGATC	-0.22
AAGGCCGA	0.435
ACCTACGC	0.00363

Sequence	PBM E-score
TGCCTGAA	-0.327
AATCTCCG	0.476
AGGAATAG	-0.0693
CTCGGCCC	0.336
ACTCACAG	-0.254
CTCCGATC	0.311
GAGGCATA	0.00364
CATTTCAA	-0.117
GCTGGAAA	0.0989
GGGATGAA	0.0152
AAAACTTC	-0.00716
AGTGCTTC	-0.0942
GAAGGTGA	0.0464
ACTACTGA	-0.182
AGCATTAC	-0.0674
ATAAACCA	-0.113
ATCGCCTC	0.00886
ACTGCCGG	0.279
AAAGTATC	0.109
GCTCGTTA	-0.118
ATAACAAC	0.00179
ATATTAAC	0.102
GCATACCC	-0.00604
CTCTGCCA	-0.191
CTCGGACA	0.415

Sequence	PBM E-score
CCTAACTC	-0.00719
CAAACGTC	-0.159
GCAATCGC	-0.0228
ATTGTCTA	0.00639
ATCTGATA	-0.153
CGTAGGCA	-0.255
AATGGCTC	-0.184
CCACAATA	-0.0095
CTAATTGA	-0.0983
TCTCCGAA	0.429
AACATACC	0.0198
AGATTGAA	-0.0357
TCATACCA	-0.237
ACAGGATA	-0.209
GCGGTAAA	0.292
ACCTCCCC	0.0732
CCCGCCCG	0.331
ATACCTCC	0.14
ACGCTCCA	-0.0571
ACACTGAA	-0.0306
GCGACAAA	-0.0379
ATCTCAAA	-0.0143
GATATCAA	0.105
GAACTGCA	-0.1
GACTCCAA	-0.28

Sequence	PBM E-score
TGTGGCAA	-0.116
CATGGGAG	-0.2
CAAGACTA	-0.267
CGCGGTAG	0.146
CCTGACCA	-0.218
GCTACAGA	-0.145
CAGACTTA	-0.269
AACGACAG	-0.22
GACGCCAA	-0.256
GAAGAGTA	-0.143
AAATAGAG	-0.106
CCAAGCTA	-0.112
CGGGAACA	0.271
ACGTGTGG	-0.178
CTCGGCAC	0.272
CGTTCTGC	0.0618
ACCAAGCC	-0.161
AGTTGTGG	-0.0781
AAGGCTAC	-0.102
CCCAGAAA	-0.0782
GGGCAAAC	0.154
TAGCCGGA	0.407
